# Earlier results as cited in article PMC11006913.
# Residue numbers refer to the chain shown, from its start. This is one part of the list.
# What was measured:
# Conditions in all cases: PBM; conditions not shown; double strand, one strand shown; scale: upbm affinity estimate (log intensity, higher = more binding, comparable within an allelic series)
# ARX (Homo sapiens) = ARX (Homo sapiens) (UniProt Q96QS3)
# ARX L343Q (Homo sapiens) = ARX L343Q (Homo sapiens) (UniProt Q96QS3)
# ARX P353L (Homo sapiens) = ARX P353L (Homo sapiens) (UniProt Q96QS3)
# ARX P353R (Homo sapiens) = ARX P353R (Homo sapiens) (UniProt Q96QS3)
# ARX R332H (Homo sapiens) = ARX R332H (Homo sapiens) (UniProt Q96QS3)
# ARX T333N (Homo sapiens) = ARX T333N (Homo sapiens) (UniProt Q96QS3)
# [1] = biological target: T1, HESX1 E149K (Homo sapiens) (UniProt Q9UBX0)
# T1 sequence: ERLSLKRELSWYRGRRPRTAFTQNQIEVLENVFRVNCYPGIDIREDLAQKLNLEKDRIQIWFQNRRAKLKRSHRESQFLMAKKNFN
# [2] = biological target: T2, HESX1 N125S (Homo sapiens) (UniProt Q9UBX0)
# T2 sequence: T1 sequence with N31S, K55E
# [3] = biological target: T3, HESX1 R160C (Homo sapiens) (UniProt Q9UBX0)
# T3 sequence: T1 sequence with K55E, R66C
# [4] = biological target: HOXD13 Q325R (Homo sapiens) (UniProt P35453)
# UniProt P35453, sequence (P35453 263-343 Q325R): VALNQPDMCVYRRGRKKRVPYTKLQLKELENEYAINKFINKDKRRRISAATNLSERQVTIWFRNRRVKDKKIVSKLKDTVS
# ISX (Homo sapiens) = ISX (Homo sapiens) (UniProt Q2M1V0)
# ISX R83Q (Homo sapiens) = ISX R83Q (Homo sapiens) (UniProt Q2M1V0)
# [5] = biological target: PROP1 R112Q (Homo sapiens) (UniProt O75360)
# [6] = biological target: PROP1 R99Q (Homo sapiens) (UniProt O75360)
sequence,measurement,setting,value
GAGCCGGC [8-mer GAGCCGGC],binding signal,ARX (Homo sapiens),10
same,binding signal,ARX L343Q (Homo sapiens),9.98
same,binding signal,ARX P353L (Homo sapiens),9.99
same,binding signal,ARX P353R (Homo sapiens),9.88
same,binding signal,ARX R332H (Homo sapiens),9.96
same,binding signal,ARX T333N (Homo sapiens),10.1
AGCGGCTC [8-mer AGCGGCTC],binding signal,ARX (Homo sapiens),10.2
same,binding signal,ARX L343Q (Homo sapiens),10
same,binding signal,ARX P353L (Homo sapiens),10.3
same,binding signal,ARX P353R (Homo sapiens),10.1
same,binding signal,ARX R332H (Homo sapiens),10
same,binding signal,ARX T333N (Homo sapiens),10.2
CCCCCGCG [8-mer CCCCCGCG],binding signal,ARX (Homo sapiens),10.2
same,binding signal,ARX L343Q (Homo sapiens),10.1
same,binding signal,ARX P353L (Homo sapiens),10.1
same,binding signal,ARX P353R (Homo sapiens),10
same,binding signal,ARX R332H (Homo sapiens),10.1
same,binding signal,ARX T333N (Homo sapiens),10.2
CGAATTAG [8-mer CGAATTAG],binding signal,ARX (Homo sapiens),12.7
same,binding signal,ARX L343Q (Homo sapiens),10.7
same,binding signal,ARX P353L (Homo sapiens),12.3
same,binding signal,ARX P353R (Homo sapiens),10.6
same,binding signal,ARX R332H (Homo sapiens),10.9
same,binding signal,ARX T333N (Homo sapiens),11.6
GAGGCACC [8-mer GAGGCACC],binding signal,ARX (Homo sapiens),10.3
same,binding signal,ARX L343Q (Homo sapiens),10.1
same,binding signal,ARX P353L (Homo sapiens),10.3
same,binding signal,ARX P353R (Homo sapiens),10.1
same,binding signal,ARX R332H (Homo sapiens),10.1
same,binding signal,ARX T333N (Homo sapiens),10.3
AGGGGCTC [8-mer AGGGGCTC],binding signal,ARX (Homo sapiens),10.2
same,binding signal,ARX L343Q (Homo sapiens),10.2
same,binding signal,ARX P353L (Homo sapiens),10.2
same,binding signal,ARX P353R (Homo sapiens),10.1
same,binding signal,ARX R332H (Homo sapiens),10.2
same,binding signal,ARX T333N (Homo sapiens),10.2
CCGCCCCC [8-mer CCGCCCCC],binding signal,ARX (Homo sapiens),9.9
same,binding signal,ARX L343Q (Homo sapiens),9.97
same,binding signal,ARX P353L (Homo sapiens),9.94
same,binding signal,ARX P353R (Homo sapiens),9.84
same,binding signal,ARX R332H (Homo sapiens),9.76
same,binding signal,ARX T333N (Homo sapiens),10.1
ATCGATTA [8-mer ATCGATTA],binding signal,ARX (Homo sapiens),12.2
same,binding signal,ARX L343Q (Homo sapiens),11
same,binding signal,ARX P353L (Homo sapiens),12.3
same,binding signal,ARX P353R (Homo sapiens),10.9
same,binding signal,ARX R332H (Homo sapiens),11.1
same,binding signal,ARX T333N (Homo sapiens),11.5
GAGCCCCC [8-mer GAGCCCCC],binding signal,ARX (Homo sapiens),10.1
same,binding signal,ARX L343Q (Homo sapiens),9.96
same,binding signal,ARX P353L (Homo sapiens),10.2
same,binding signal,ARX P353R (Homo sapiens),9.95
same,binding signal,ARX R332H (Homo sapiens),9.91
same,binding signal,ARX T333N (Homo sapiens),10.2
GACGGGGC [8-mer GACGGGGC],binding signal,ARX (Homo sapiens),10.2
same,binding signal,ARX L343Q (Homo sapiens),10.2
same,binding signal,ARX P353L (Homo sapiens),10.2
same,binding signal,ARX P353R (Homo sapiens),10.1
same,binding signal,ARX R332H (Homo sapiens),10.2
same,binding signal,ARX T333N (Homo sapiens),10.2
AATAGATT [8-mer AATAGATT],binding signal,ARX (Homo sapiens),11.7
same,binding signal,ARX L343Q (Homo sapiens),10.8
same,binding signal,ARX P353L (Homo sapiens),11.5
same,binding signal,ARX P353R (Homo sapiens),10.8
same,binding signal,ARX R332H (Homo sapiens),11
same,binding signal,ARX T333N (Homo sapiens),11.3
AGCGGAGG [8-mer AGCGGAGG],binding signal,ARX (Homo sapiens),10.2
same,binding signal,ARX L343Q (Homo sapiens),10.2
same,binding signal,ARX P353L (Homo sapiens),10.2
same,binding signal,ARX P353R (Homo sapiens),10.1
same,binding signal,ARX R332H (Homo sapiens),10.2
same,binding signal,ARX T333N (Homo sapiens),10.3
TCGGCCGA [8-mer TCGGCCGA],binding signal,ARX (Homo sapiens),10.2
same,binding signal,ARX L343Q (Homo sapiens),10.3
same,binding signal,ARX P353L (Homo sapiens),10.4
same,binding signal,ARX P353R (Homo sapiens),10.2
same,binding signal,ARX R332H (Homo sapiens),10.3
same,binding signal,ARX T333N (Homo sapiens),10.4
CCCCCTGC [8-mer CCCCCTGC],binding signal,ARX (Homo sapiens),10.3
same,binding signal,ARX L343Q (Homo sapiens),10.1
same,binding signal,ARX P353L (Homo sapiens),10.2
same,binding signal,ARX P353R (Homo sapiens),9.93
same,binding signal,ARX R332H (Homo sapiens),9.99
same,binding signal,ARX T333N (Homo sapiens),10.2
GGAGCTCC [8-mer GGAGCTCC],binding signal,ARX (Homo sapiens),10
same,binding signal,ARX L343Q (Homo sapiens),9.95
same,binding signal,ARX P353L (Homo sapiens),10.3
same,binding signal,ARX P353R (Homo sapiens),10
same,binding signal,ARX R332H (Homo sapiens),10
same,binding signal,ARX T333N (Homo sapiens),10.1
AGGCGGGG [8-mer AGGCGGGG],binding signal,ARX (Homo sapiens),10.2
same,binding signal,ARX L343Q (Homo sapiens),10.1
same,binding signal,ARX P353L (Homo sapiens),10
same,binding signal,ARX P353R (Homo sapiens),10
same,binding signal,ARX R332H (Homo sapiens),10.1
same,binding signal,ARX T333N (Homo sapiens),10.3
GGGGGGCA [8-mer GGGGGGCA],binding signal,ARX (Homo sapiens),10.1
same,binding signal,ARX L343Q (Homo sapiens),9.99
same,binding signal,ARX P353L (Homo sapiens),10
same,binding signal,ARX P353R (Homo sapiens),9.81
same,binding signal,ARX R332H (Homo sapiens),9.88
same,binding signal,ARX T333N (Homo sapiens),10.1
ACGCCCCC [8-mer ACGCCCCC],binding signal,ARX (Homo sapiens),10.2
same,binding signal,ARX L343Q (Homo sapiens),10.1
same,binding signal,ARX P353L (Homo sapiens),10.3
same,binding signal,ARX P353R (Homo sapiens),9.99
same,binding signal,ARX R332H (Homo sapiens),9.97
same,binding signal,ARX T333N (Homo sapiens),10.3
GCCGACCC [8-mer GCCGACCC],binding signal,ARX (Homo sapiens),10
same,binding signal,ARX L343Q (Homo sapiens),9.9
same,binding signal,ARX P353L (Homo sapiens),10.1
same,binding signal,ARX P353R (Homo sapiens),9.88
same,binding signal,ARX R332H (Homo sapiens),9.92
same,binding signal,ARX T333N (Homo sapiens),10.1
CTTGGGGC [8-mer CTTGGGGC],binding signal,ARX (Homo sapiens),10.1
same,binding signal,ARX L343Q (Homo sapiens),10.2
same,binding signal,ARX P353L (Homo sapiens),10.3
same,binding signal,ARX P353R (Homo sapiens),10.1
same,binding signal,ARX R332H (Homo sapiens),10.2
same,binding signal,ARX T333N (Homo sapiens),10.3
ATAATTAT [8-mer ATAATTAT],binding signal,ARX (Homo sapiens),12.9
same,binding signal,ARX L343Q (Homo sapiens),11.1
same,binding signal,ARX P353L (Homo sapiens),12.4
same,binding signal,ARX P353R (Homo sapiens),11
same,binding signal,ARX R332H (Homo sapiens),11.2
same,binding signal,ARX T333N (Homo sapiens),12.1
same,binding signal,[1],11.8
same,binding signal,[2],12.8
same,binding signal,[3],10.5
same,binding signal,[4],12
same,binding signal,ISX (Homo sapiens),15.1
same,binding signal,ISX R83Q (Homo sapiens),13.6
same,binding signal,[5],12.8
same,binding signal,[6],12.3
